According to PMC6030701 (EMBO Reports, 2018):

Target: the molecule itself
Assay: SEC

B1: MSP domain and coiled‐coil of VAP‐B [[…]], wild type, C‐terminal 6His (domain or fragment)
chain: not shown
**Q.** With B1 as the protein, how does the “stoichiometry N” value read?
**A.** 2
